Read-outs that look alike come from different tables or passages of the source. No constants are given. Whether binding was seen depends on the method and setting. In cells and extracts the contact can be indirect. Some binding calls cover weakened binding; strength is not graded here. For some of these results: Tags and fused reporters may be left off the sequences shown.

Sequences of proteins named here, by UniProt entry; tags and fusion partners are left off.
UniProt Q8R4B8: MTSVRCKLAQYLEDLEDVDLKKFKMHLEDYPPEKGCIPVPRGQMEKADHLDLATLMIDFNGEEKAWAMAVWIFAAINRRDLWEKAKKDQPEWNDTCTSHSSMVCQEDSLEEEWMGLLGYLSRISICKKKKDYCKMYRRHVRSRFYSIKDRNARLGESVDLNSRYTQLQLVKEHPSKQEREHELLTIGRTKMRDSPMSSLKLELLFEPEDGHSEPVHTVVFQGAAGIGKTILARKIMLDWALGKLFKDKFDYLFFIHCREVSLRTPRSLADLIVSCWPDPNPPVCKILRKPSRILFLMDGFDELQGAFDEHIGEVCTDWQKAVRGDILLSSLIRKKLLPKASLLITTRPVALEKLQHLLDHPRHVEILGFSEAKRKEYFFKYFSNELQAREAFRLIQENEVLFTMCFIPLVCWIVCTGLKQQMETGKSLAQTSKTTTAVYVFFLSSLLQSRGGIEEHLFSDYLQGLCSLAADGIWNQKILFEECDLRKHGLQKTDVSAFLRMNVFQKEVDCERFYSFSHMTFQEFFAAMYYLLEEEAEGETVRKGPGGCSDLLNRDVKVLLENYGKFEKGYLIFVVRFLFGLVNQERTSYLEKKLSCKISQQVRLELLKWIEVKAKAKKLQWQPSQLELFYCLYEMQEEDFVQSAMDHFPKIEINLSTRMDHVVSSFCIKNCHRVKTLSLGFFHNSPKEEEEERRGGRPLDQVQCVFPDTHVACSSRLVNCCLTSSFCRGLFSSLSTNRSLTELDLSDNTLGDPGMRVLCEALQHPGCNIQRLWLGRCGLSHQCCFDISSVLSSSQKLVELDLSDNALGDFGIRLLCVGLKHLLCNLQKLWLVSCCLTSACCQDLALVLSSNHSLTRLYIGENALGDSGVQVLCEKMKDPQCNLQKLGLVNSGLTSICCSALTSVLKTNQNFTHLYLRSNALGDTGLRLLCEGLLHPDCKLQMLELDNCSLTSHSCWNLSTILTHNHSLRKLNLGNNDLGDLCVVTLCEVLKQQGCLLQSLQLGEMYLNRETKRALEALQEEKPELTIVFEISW
UniProt Q96P20: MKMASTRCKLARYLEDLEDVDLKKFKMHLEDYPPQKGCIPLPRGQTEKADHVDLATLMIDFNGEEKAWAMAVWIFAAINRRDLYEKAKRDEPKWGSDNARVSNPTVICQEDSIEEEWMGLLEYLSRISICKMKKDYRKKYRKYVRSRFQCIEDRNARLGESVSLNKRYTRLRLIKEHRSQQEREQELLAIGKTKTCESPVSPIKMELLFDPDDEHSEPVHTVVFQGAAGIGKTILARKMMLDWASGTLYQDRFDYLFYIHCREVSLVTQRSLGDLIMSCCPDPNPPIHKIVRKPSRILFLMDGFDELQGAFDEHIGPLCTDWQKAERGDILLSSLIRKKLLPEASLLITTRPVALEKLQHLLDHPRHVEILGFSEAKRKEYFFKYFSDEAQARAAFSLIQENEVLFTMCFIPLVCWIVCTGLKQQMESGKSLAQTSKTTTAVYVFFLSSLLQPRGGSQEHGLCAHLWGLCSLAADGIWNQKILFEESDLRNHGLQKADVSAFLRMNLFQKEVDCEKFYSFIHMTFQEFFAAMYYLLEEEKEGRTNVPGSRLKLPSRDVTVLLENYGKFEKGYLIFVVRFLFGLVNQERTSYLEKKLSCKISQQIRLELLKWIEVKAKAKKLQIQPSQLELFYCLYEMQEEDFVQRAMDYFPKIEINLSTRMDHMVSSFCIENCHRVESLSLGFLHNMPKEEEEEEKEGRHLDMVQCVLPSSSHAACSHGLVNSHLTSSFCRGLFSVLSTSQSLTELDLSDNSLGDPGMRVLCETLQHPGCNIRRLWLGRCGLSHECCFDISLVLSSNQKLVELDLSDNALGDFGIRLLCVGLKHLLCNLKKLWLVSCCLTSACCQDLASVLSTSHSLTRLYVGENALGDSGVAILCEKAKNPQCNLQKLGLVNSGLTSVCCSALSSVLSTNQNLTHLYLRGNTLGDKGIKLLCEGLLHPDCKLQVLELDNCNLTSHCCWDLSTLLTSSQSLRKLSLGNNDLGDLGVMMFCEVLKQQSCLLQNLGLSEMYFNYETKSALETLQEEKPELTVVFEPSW
UniProt Q9ULZ3: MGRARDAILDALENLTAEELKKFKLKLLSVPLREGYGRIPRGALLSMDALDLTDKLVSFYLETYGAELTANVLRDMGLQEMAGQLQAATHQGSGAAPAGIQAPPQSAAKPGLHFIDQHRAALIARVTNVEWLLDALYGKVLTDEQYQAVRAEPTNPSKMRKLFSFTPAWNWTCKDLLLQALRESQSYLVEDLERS
UniProt P29466: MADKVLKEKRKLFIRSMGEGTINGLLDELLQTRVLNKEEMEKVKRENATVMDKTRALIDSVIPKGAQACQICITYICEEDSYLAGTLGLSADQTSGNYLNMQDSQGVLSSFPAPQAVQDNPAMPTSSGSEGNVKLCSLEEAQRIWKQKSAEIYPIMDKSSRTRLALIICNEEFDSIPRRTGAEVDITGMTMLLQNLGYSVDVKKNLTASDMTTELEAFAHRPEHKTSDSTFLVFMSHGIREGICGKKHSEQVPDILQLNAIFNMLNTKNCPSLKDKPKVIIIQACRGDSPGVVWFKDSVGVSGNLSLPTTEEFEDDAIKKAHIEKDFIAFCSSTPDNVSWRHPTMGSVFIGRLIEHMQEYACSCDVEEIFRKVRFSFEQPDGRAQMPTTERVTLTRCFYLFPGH
UniProt P46737: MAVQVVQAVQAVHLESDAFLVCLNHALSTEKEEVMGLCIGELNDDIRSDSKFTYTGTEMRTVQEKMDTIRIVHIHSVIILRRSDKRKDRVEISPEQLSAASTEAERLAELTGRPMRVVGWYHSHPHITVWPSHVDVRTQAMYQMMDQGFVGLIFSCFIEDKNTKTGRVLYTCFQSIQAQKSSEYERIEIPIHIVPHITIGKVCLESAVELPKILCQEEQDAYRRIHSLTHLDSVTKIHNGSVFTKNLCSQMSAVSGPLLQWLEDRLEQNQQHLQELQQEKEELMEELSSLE
UniProt P46736: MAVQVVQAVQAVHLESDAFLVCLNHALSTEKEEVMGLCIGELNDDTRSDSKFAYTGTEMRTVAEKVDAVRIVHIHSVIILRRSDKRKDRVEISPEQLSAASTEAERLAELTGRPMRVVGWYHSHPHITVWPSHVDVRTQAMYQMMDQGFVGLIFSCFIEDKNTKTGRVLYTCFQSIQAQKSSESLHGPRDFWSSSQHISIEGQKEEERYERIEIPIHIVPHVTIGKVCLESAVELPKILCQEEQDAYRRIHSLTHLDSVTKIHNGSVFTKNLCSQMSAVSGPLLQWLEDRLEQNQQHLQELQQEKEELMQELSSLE

This note sets out measurements from publication PMC6904361, “Vitamin D Receptor Inhibits NLRP3 Activation by Impeding Its BRCC3-Mediated Deubiquitination” (Frontiers in Immunology, 2019).

The target in experiment [1] is NLRP3, endogenous in mouse BMDMs (mouse (endogenous in BMDMs)) (UniProt Q8R4B8). Briefly: co-IP; endogenous proteins in mouse BMDM lysates; LPS-primed, unstimulated or nigericin 30 min (Figure 1C); mock or LPS-primed WT and Vdr-/- BMDMs, anti-NLRP3 IP (Figure 4B); RIPA buffer, Protein A/G-Agarose, immunoblot. In general terms: Immunoblotting shows a protein as a band on a membrane.

Experiment [2] has as its target Flag-NLRP3 (UniProt Q96P20). Briefly: co-IP; HEK293T cells transiently co-transfected; RIPA lysis buffer (50 mM Tris pH 7.4, 150 mM NaCl, 1% NP-40, 0.25% sodium deoxycholate); antibody overnight, Protein A/G-Agarose; immunoblot; with or without co-expressed VDR or VDR-LBD in Figures 4C,D (anti-Flag IP).
Experiment [3] addresses NLRP3, endogenous in mouse BMDMs (mouse (endogenous in BMDMs)) (UniProt Q8R4B8). Briefly: co-IP; endogenous proteins in mouse BMDM lysates; LPS-primed, unstimulated or nigericin 30 min (Figure 1C); mock or LPS-primed WT and Vdr-/- BMDMs, anti-NLRP3 IP (Figure 4B); RIPA buffer, Protein A/G-Agarose, immunoblot. This is another data set of the same source.
In experiment [4] the target is ASC (UniProt Q9ULZ3). Briefly: co-IP; HEK293T cells transiently co-transfected; RIPA lysis buffer (50 mM Tris pH 7.4, 150 mM NaCl, 1% NP-40, 0.25% sodium deoxycholate); antibody overnight, Protein A/G-Agarose; immunoblot; with or without co-expressed VDR or VDR-LBD in Figures 4C,D (anti-Flag IP).
Experiment [5] has as its target Flag-NLRP3 (UniProt Q96P20). The description is as above. The source holds these as a separate data set.
Experiment [6] deals with pro-caspase-1 (UniProt P29466). The experiment is described as above.
Experiment [7] concerns the target Myc-tagged wild-type NLRP3 (UniProt Q96P20). The experiment is described as above.

In the case of “BRCC3, endogenous in mouse BMDMs (from UniProt P46737 1-291) (enzyme)”, in experiment [1], the binding result is listed as “binds”.
As for “HA-BRCC3 (from UniProt P46736 1-316) (enzyme)”, the binding result in experiment [2] is given as “binds”.

B1: VDR, endogenous in mouse BMDMs (protein, UniProt P48281 1-422)
chain: MEAMAASTSLPDPGDFDRNVPRICGVCGDRATGFHFNAMTCEGCKGFFRRSMKRKALFTCPFNGDCRITKDNRRHCQACRLKRCVDIGMMKEFILTDEEVQRKREMIMKRKEEEALKDSLRPKLSEEQQHIIAILLDAHHKTYDPTYADFRDFRPPIRADVSTGSYSPRPTLSFSGDSSSNSDLYTPSLDMMEPASFSTMDLNEEGSDDPSVTLDLSPLSMLPHLADLVSYSIQKVIGFAKMIPGFRDLTSDDQIVLLKSSAIEVIMLRSNQSFTLDDMSWDCGSQDYKYDITDVSRAGHTLELIEPLIKFQVGLKKLNLHEEEHVLLMAICIVSPDRPGVQDAKLVEAIQDRLSNTLQTYIRCRHPPPGSHQLYAKMIQKLADLRSLNEEHSKQYRSLSFQPENSMKLTPLVLEVFGNEIS
In the case of B1, the binding entry in experiment [3] is listed as “binds”.

B2: GST-human VDR (natural protein, UniProt P11473 1-427, looked up)
chain: MEAMAASTSLPDPGDFDRNVPRICGVCGDRATGFHFNAMTCEGCKGFFRRSMKRKALFTCPFNGDCRITKDNRRHCQACRLKRCVDIGMMKEFILTDEEVQRKREMILKRKEEEALKDSLRPKLSEEQQRIIAILLDAHHKTYDPTYSDFCQFRPPVRVNDGGGSHPSRPNSRHTPSFSGDSSSSCSDHCITSSDMMDSSSFSNLDLSEEDSDDPSVTLELSQLSMLPHLADLVSYSIQKVIGFAKMIPGFRDLTSEDQIVLLKSSAIEVIMLRSNESFTMDDMSWTCGNQDYKYRVSDVTKAGHSLELIEPLIKFQVGLKKLNLHEEEHVLLMAICIVSPDRPGVQDAALIEAIQDRLSNTLQTYIRCRHPPPGSHLLYAKMIQKLADLRSLNEEHSKQYRCLSFQPECSMKLTPLVLEVFGNEIS
notes: human vitamin D receptor in pGEX-6P1; also called GST-VDR; pGEX6p-1-GST-VDR; source: E. coli BL21(DE3), IPTG-induced; called purified in the legend
For the molecule B2, the binding entry in experiment [4] is “no binding”; in experiment [5] it was “binds”; in experiment [6], “no binding”; in experiment [7] it was “binds”.
